Data from the supplement of paper PMC9588766.
Counter-ions that a name gives are not always drawn. In all, about 1,900 compounds were measured (“cell viability of compound + 1 nM pemigatinib relative to pemigatinib-only (DMSO) wells”: median about 0.95, lowest 2% from about 0.22 on). The list shows a part of the results.

System: PDC-DUC18828
Test: cell viability of compound + 1 nM pemigatinib relative to pemigatinib-only (DMSO) wells (fraction); PDC-DUC18828 is a patient-derived cholangiocarcinoma cell line; higher = less growth inhibition
Conditions: first compound 1 µM; pemigatinib concentration 1 nM; 72 h
Protocol: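 Selleck Bioactive library screen in the patient-derived FGFR2 fusion-positive ICC cell line PDC-DUC18828 (500 cells/well). Each compound was tested at 1 uM with 1 nM pemigatinib, in triplicate, for 72 h. Viability was read by CellTiter-Glo and normalised to plate DMSO controls. Value is the paper's averaged normalised viability.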

Row | Structure (SMILES) | cell viability
1 | CC1=C(CC(=O)O)c2cc(F)ccc2/C1=C\c1ccc([S+](C)[O-])cc1 (stereo not given) [Sulindac] + CCN1C(=O)N(c2c(F)c(OC)cc(OC)c2F)Cc2cnc3[nH]c(CN4CCOCC4)cc3c21 [pemigatinib] | 0.983
2 | C=CC(=O)Nc1ccc2ncnc(Nc3ccc(OCc4cccc(F)c4)c(Cl)c3)c2c1 + CCN1C(=O)N(c2c(F)c(OC)cc(OC)c2F)Cc2cnc3[nH]c(CN4CCOCC4)cc3c21 [pemigatinib] | 0.74
3 | C=CC(=O)N1CCC[C@@H](n2nc(-c3ccc(Oc4ccccc4)cc3)c3c(N)ncnc32)C1 + CCN1C(=O)N(c2c(F)c(OC)cc(OC)c2F)Cc2cnc3[nH]c(CN4CCOCC4)cc3c21 [pemigatinib] | 0.893
4 | CC(=O)N1CCN(CCOc2ccc(C3CCN(C4=Nn5c(nnc5C(F)(F)F)CC4)CC3)cc2)CC1 + CCN1C(=O)N(c2c(F)c(OC)cc(OC)c2F)Cc2cnc3[nH]c(CN4CCOCC4)cc3c21 [pemigatinib] | 0.994
5 | O=C(O)c1ccccc1C(=O)Nc1ccc(-c2ccccc2)cc1 [Kartogenin] + CCN1C(=O)N(c2c(F)c(OC)cc(OC)c2F)Cc2cnc3[nH]c(CN4CCOCC4)cc3c21 [pemigatinib] | 0.892
6 | CNC(=O)[C@H](Cc1ccccc1)NC(=O)[C@H](CC(C)C)[C@H](CSc1cccs1)C(=O)NO [Batimastat (BB-94)] + CCN1C(=O)N(c2c(F)c(OC)cc(OC)c2F)Cc2cnc3[nH]c(CN4CCOCC4)cc3c21 [pemigatinib] | 0.933
7 | CCOC(=O)[C@H](CCc1ccccc1)N[C@@H](C)C(=O)N1CCC[C@H]1C(=O)O [Enalapril Maleate] + CCN1C(=O)N(c2c(F)c(OC)cc(OC)c2F)Cc2cnc3[nH]c(CN4CCOCC4)cc3c21 [pemigatinib] | 1
8 | Nc1cccc2c1CN(C1CCC(=O)NC1=O)C2=O (stereo not given) [Lenalidomide (CC-5013)] + CCN1C(=O)N(c2c(F)c(OC)cc(OC)c2F)Cc2cnc3[nH]c(CN4CCOCC4)cc3c21 [pemigatinib] | 0.965
9 | NC(=S)N/N=C/c1ncccc1N [Triapine] + CCN1C(=O)N(c2c(F)c(OC)cc(OC)c2F)Cc2cnc3[nH]c(CN4CCOCC4)cc3c21 [pemigatinib] | 0.936
10 | COc1ccc2[nH]c([S+]([O-])Cc3ncc(C)c(OC)c3C)nc2c1 (stereo not given) [Omeprazole] + CCN1C(=O)N(c2c(F)c(OC)cc(OC)c2F)Cc2cnc3[nH]c(CN4CCOCC4)cc3c21 [pemigatinib] | 0.985
11 | CCS(=O)(=O)Nc1ccc2c(c1)/C(=C(/Nc1ccc(CN3CCCCC3)cc1)c1ccccc1)C(=O)N2 [Hesperadin] + CCN1C(=O)N(c2c(F)c(OC)cc(OC)c2F)Cc2cnc3[nH]c(CN4CCOCC4)cc3c21 [pemigatinib] | 0.26
12 | O=C(Nc1ccc(-c2ccnc(Nc3ccc(N4CCOCC4)cc3)n2)cc1)C1CCCN1 (stereo not given) + CCN1C(=O)N(c2c(F)c(OC)cc(OC)c2F)Cc2cnc3[nH]c(CN4CCOCC4)cc3c21 [pemigatinib] | 0.951
13 | COc1nc(-c2ccc3c(c2)OCO3)n(-c2ccc(NC(=O)CSc3ccccc3)cc2)n1 [SecinH3] + CCN1C(=O)N(c2c(F)c(OC)cc(OC)c2F)Cc2cnc3[nH]c(CN4CCOCC4)cc3c21 [pemigatinib] | 0.954
14 | [I-].[K+] [Potassium Iodide] + CCN1C(=O)N(c2c(F)c(OC)cc(OC)c2F)Cc2cnc3[nH]c(CN4CCOCC4)cc3c21 [pemigatinib] | 1.07
15 | Cc1ccccc1N1C(=O)c2cc(S(N)(=O)=O)c(Cl)cc2NC1C (stereo not given) [Metolazone] + CCN1C(=O)N(c2c(F)c(OC)cc(OC)c2F)Cc2cnc3[nH]c(CN4CCOCC4)cc3c21 [pemigatinib] | 1.03
16 | Cc1cc(-n2c(=O)[nH]c(=O)n(C)c2=O)ccc1Oc1ccc(SC(F)(F)F)cc1 [Toltrazuril] + CCN1C(=O)N(c2c(F)c(OC)cc(OC)c2F)Cc2cnc3[nH]c(CN4CCOCC4)cc3c21 [pemigatinib] | 1.04
17 | OCCOCCN1CCN(C(c2ccccc2)c2ccc(Cl)cc2)CC1 (stereo not given) [Hydroxyzine 2HCl] + CCN1C(=O)N(c2c(F)c(OC)cc(OC)c2F)Cc2cnc3[nH]c(CN4CCOCC4)cc3c21 [pemigatinib] | 0.996
18 | COc1ccc(CNC(=O)Nc2ncc([N+](=O)[O-])s2)cc1 + CCN1C(=O)N(c2c(F)c(OC)cc(OC)c2F)Cc2cnc3[nH]c(CN4CCOCC4)cc3c21 [pemigatinib] | 0.934
19 | Cn1c2ccccc2c2c3c(c4c5ccccc5n(CCC#N)c4c21)CNC3=O + CCN1C(=O)N(c2c(F)c(OC)cc(OC)c2F)Cc2cnc3[nH]c(CN4CCOCC4)cc3c21 [pemigatinib] | 0.902
20 | O=C(NS(=O)(=O)c1ccc(Br)s1)c1ccc(Cl)cc1Cl [Tasisulam] + CCN1C(=O)N(c2c(F)c(OC)cc(OC)c2F)Cc2cnc3[nH]c(CN4CCOCC4)cc3c21 [pemigatinib] | 1.01
21 | C/C(=N\NC(=O)c1cccc(S(=O)(=O)N2CCOCC2)c1)c1cc(Cl)ccc1O + CCN1C(=O)N(c2c(F)c(OC)cc(OC)c2F)Cc2cnc3[nH]c(CN4CCOCC4)cc3c21 [pemigatinib] | 0.238
22 | Cn1ccnc1S [Methimazole] + CCN1C(=O)N(c2c(F)c(OC)cc(OC)c2F)Cc2cnc3[nH]c(CN4CCOCC4)cc3c21 [pemigatinib] | 0.996
23 | Nc1c(Br)cc(Br)cc1CN[C@H]1CC[C@H](O)CC1 [Ambroxol HCl] + CCN1C(=O)N(c2c(F)c(OC)cc(OC)c2F)Cc2cnc3[nH]c(CN4CCOCC4)cc3c21 [pemigatinib] | 0.882
24 | CS(=O)(=O)CCNCc1ccc(-c2ccc3ncnc(Nc4ccc(OCc5cccc(F)c5)c(Cl)c4)c3c2)o1 + CCN1C(=O)N(c2c(F)c(OC)cc(OC)c2F)Cc2cnc3[nH]c(CN4CCOCC4)cc3c21 [pemigatinib] | 0.903
25 | C=CC(=O)Nc1cccc(Nc2nc(Nc3ccc(N4CCN(C(C)=O)CC4)cc3OC)ncc2C(F)(F)F)c1 + CCN1C(=O)N(c2c(F)c(OC)cc(OC)c2F)Cc2cnc3[nH]c(CN4CCOCC4)cc3c21 [pemigatinib] | 0.871
